# Data reported in PMC4336329 (PLoS ONE, 2015).
# In all, about 310,000 compounds went through this assay and about 2,200 (0.71%) showed an effect of 50% or more. The effect is printed as a negative number. The list shows a part of the results.
# Target: human ether-à-go-go-related gene (hERG) potassium channel (human, UniProt Q12809)
# Assay: primary screen, population patch clamp on CHO cells stably expressing hERG
# Chain of human ether-à-go-go-related gene (hERG) potassium channel (Q12809 whole entry, looked up): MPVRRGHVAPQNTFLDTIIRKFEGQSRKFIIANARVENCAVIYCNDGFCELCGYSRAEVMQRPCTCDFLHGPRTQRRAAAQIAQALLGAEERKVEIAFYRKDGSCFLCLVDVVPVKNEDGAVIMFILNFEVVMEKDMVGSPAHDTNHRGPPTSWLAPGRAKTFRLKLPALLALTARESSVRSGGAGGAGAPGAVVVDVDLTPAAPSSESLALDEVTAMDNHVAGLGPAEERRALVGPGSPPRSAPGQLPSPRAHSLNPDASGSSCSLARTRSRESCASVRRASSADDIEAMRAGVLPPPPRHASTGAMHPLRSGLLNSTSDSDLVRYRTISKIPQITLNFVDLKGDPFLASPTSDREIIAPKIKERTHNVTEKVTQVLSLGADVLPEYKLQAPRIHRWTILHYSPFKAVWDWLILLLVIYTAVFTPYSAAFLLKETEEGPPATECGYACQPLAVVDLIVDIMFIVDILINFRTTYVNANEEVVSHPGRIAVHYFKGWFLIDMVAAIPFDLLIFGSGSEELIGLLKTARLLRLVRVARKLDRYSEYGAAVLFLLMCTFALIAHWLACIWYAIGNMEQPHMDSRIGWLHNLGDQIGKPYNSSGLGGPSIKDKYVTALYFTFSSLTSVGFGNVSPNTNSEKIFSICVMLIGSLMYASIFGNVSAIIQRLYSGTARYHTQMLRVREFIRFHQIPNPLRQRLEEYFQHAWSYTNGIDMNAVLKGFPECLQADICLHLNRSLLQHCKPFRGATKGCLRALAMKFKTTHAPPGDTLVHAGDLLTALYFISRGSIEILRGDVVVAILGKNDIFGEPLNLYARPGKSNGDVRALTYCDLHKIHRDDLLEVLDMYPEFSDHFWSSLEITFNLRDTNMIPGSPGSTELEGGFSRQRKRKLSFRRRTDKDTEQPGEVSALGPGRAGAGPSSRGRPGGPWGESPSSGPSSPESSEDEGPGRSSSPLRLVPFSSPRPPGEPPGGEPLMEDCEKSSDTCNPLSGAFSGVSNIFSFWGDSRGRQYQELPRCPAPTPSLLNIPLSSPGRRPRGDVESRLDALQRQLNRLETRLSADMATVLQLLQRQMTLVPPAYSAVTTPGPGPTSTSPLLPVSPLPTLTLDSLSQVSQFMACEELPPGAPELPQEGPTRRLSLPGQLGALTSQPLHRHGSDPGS
row,Compound,"hERG current change (%, negative = inhibition) at 1uM [%]"
1,COc1ccc([N+](=O)[O-])cc1NC(=O)CCN1CCN(CCO)CC1,1.93
2,O=C1C=C(c2cccc3c2oc2ccccc23)CCC1,5.88
3,CCN(C(=O)CC(C)C)c1nnc(Cn2nnc3ccccc32)s1,5.22
4,O=C(NC12CC3CC(CC(C3)C1)C2)C1=COCCO1,9.19
5,O=C(CCC1CCCCC1)NCc1cccs1,8.76
6,Cc1noc(C)c1C(=O)OCC(=O)Nc1ccc(C(N)=O)cc1,13.7
7,COc1ccc2c(c1)c(=O)oc1cc(OCC(=O)NC3CCCCC3)ccc12,4.75
8,O=C(O)C1CCN(c2ccc(Cl)nn2)CC1,2.29
9,COc1ccc(CN2CCC(c3nc4ccc(Cl)cc4[nH]3)CC2)cc1,-84
10,Cc1cccc(C(=O)NCCc2n[nH]c(=S)n2C)c1,3.01
11,Cc1sc2nc(CSCC(=O)Nc3c(F)cccc3F)[nH]c(=O)c2c1C,8.68
12,O=C(Cc1ccccc1F)NNC(=O)c1ccncc1,5.56
13,Cc1ccc(NC(N)=S)cc1,11.6
14,CCOC(=O)NC(O)C(=O)c1ccc(F)cc1 (centres unmarked),17.7
15,COc1ccc(N=Nc2nc(-c3ccccc3)c(-c3ccccc3)[nH]2)cc1,3.26
16,CS(=O)(=O)Nc1cccc(C2=NN(C(=O)CCC(=O)O)C(c3cccs3)C2)c1 (centres unmarked),10.4
17,CC1CCCC(NC(=O)c2cc(S(=O)(=O)N3CCCCC3)ccc2Cl)C1C (centres unmarked),0.503
18,CCOC(=O)CSc1nc2sc(C)c(C)c2c(=O)[nH]1,14
19,Cc1ccc(CNC(=O)C2CCCN(C(=O)Nc3ccc(F)cc3)C2)cc1 (centres unmarked),1.77
20,CCOc1ccc(-n2cc(-c3ccccc3)c3c(SC(C)C(=O)OC)ncnc32)cc1 (centres unmarked),20.1
21,Cc1ccc(NS(=O)(=O)c2ccc3c(c2)oc(=O)n3C)cc1F,12.6
22,C[C@H]1CCC[C@]2(C)C[C@H]3OC(=O)C(CN4CCCCCC4)[C@H]3C=C12 (some centres unmarked),4.66
23,Cc1ccccc1Cn1c(CN2CCN(C(=O)c3ccco3)CC2)nc2c1c(=O)n(C)c(=O)n2C,-16.4
24,O=C1/C(=C/c2cccnc2)Oc2cc(OS(=O)(=O)c3ccc(Cl)cc3)ccc21,-2.81
25,COc1ccc(CNS(=O)(=O)c2cc3c(cc2C)N(C)CCO3)cc1,7.17
26,O=C(Nc1ccccc1F)C1(c2ccccc2)CC1(Cl)Cl (centres unmarked),-1.95
